Measured values taken from patent US5112808A, “Alkylated hormone-releasing peptides and method of treatig mammals therewith” (American Cyanamid Company, priority 1988, dated 1992).
Part of at least one peptide drawing is inferred or uncertain, most often the ends. Where a SMILES comes first, the peptide text is derived from it. [ ]: non-standard residue; d: D form.

Tests used:
plasma growth hormone = test: Evaluation of peptides in vivo in sheep: plasma GH levels in lambs injected intravenously at 100 ng/kg; settings: for Plasma GH Peak / Plasma GH Post-inj Mean: 100 ng/kg IV; for Plasma GH Peak: control 12.2; for Plasma GH Post-inj Mean: two hours after treatment, means of 8 samples/animal from 8 animals, control 8.7; for Plasma GH Pre-inj Mean: before IV injection of 100 ng/kg, means of 5 samples/animal from 8 animals, control 8.4
Procedure: The purpose of this experiment is to compare the GH releasing activities of several GRF analogs selected for expected high potency and the lack of either a terminal amide or a D-amino acid. The analogs to be compared in wether lambs at 100 ng/kg (IV) are tri-isopropyl-GRF(1-29)-NH2, tri-isopropyl-GRF(1-29)-OH, tri-isopropyl-GRF(1-40)OH, D-ala^2, arg^12,21 -GRF (1-29)-OH, D-ala^2, arg^12,21 -GRF(1-29)-NH2, GRF(1-40)-OH and GRF(1-29)-NH2
A balanced 8×8 Latin square design will be used to test the following 8 treatments:
Sheep are maintained in individual metabolism cages at all times. Each sheep has previously received an indwelling jugular cannula which is flushed daily with heparinized (400-800 IU/ml) sterile saline to help maintain […].
All compounds are solubilized at 5 ug/ml in sterile saline containing 1% Tween 80 and injected intravenously at 100 ng/kg. Control lambs receive equal volumes of the vehicle only. The drugs are prepared each day just prior to injection to minimize sticking to the vials.
Blood is collected in heparinized tubes at 15 minute intervals for one hour prior to and for two hours after the treatments are administered. Plasma samples are removed by centrifugation and frozen.
Blood samples are taken from each animal at 15 minute intervals for 3 hours each day during the 8 day trial period. The samples are analyzed for plasma growth hormone (ng/ml). Data obtained are reported below as near values obtained for each treatment.

growth hormone release = test: Peptide effects on growth hormone release in the pentobarbital-anesthetized rat (plasma GH by RIA); assay type: in vivo; settings: 15 min, saline control 91 ± 11
Procedure: In this evaluation, the procedures described by W. A. Murphy et al., Endocrinology 109: 491-495 (1980), were employed.
In growth hormone (GH) experiments, male rats (Charles Rivers) were anesthetized with NEMBUTAL® (6 mg per 100 g body weight) which also served to maintain stimulated plasma GH levels. Exactly 30 minutes after the rats were anesthetized, 0.5 mL of saline or the test peptide in saline was administered as a SC bolus. A 1 mL blood sample was drawn from the jugular vein 15 minutes after the injection of the peptide in saline or at the indicated times in the time course assay (p26). GH levels were determined using NIADDKD rat GH RIA components.

Row | Structure (SMILES) | Plasma GH Peak (plasma growth hormone) [ng/mL] | Plasma GH Post-inj Mean (plasma growth hormone) [ng/mL] | Plasma GH Pre-inj Mean (plasma growth hormone) [ng/mL] | PLASMA GH (growth hormone release; dose 10 ug/100 g BW SC) [ng/mL] | PLASMA GH (growth hormone release; dose 25 ug/100 g BW SC) [ng/mL]
1 | CC[C@H](C)[C@H](NC(=O)[C@H](C)NC(=O)[C@H](CC(=O)O)NC(=O)[C@@H](C)NC(=O)[C@@H](N)Cc1ccc(O)cc1)C(=O)N[C@@H](Cc1ccccc1)C(=O)N[C@H](C(=O)N[C@@H](CC(N)=O)C(=O)N[C@@H](CO)C(=O)N[C@@H](Cc1ccc(O)cc1)C(=O)N[C@@H](CCCNC(=N)N)C(=O)N[C@@H](CCCNC(=N)N)C(=O)N[C@H](C(=O)N[C@@H](CC(C)C)C(=O)NCC(=O)N[C@@H](CCC(N)=O)C(=O)N[C@@H](CC(C)C)C(=O)N[C@@H](CO)C(=O)N[C@@H](C)C(=O)N[C@@H](CCCNC(=N)N)C(=O)N[C@@H](CCCNC(=N)N)C(=O)N[C@@H](CC(C)C)C(=O)N[C@@H](CC(C)C)C(=O)N[C@@H](CCC(N)=O)C(=O)N[C@@H](CC(=O)O)C(=O)N[C@H](C(=O)N[C@@H](CCSC)C(=O)N[C@@H](CO)C(=O)N[C@@H](CCCNC(=N)N)C(=O)O)[C@@H](C)CC)C(C)C)[C@@H](C)O [D-ala^2,arg^12,21 -GRF(1-29)-OH, D-ala^2, arg^12,21 -GRF(1-29)-OH] (H-Y[dA]DAIFTNSYRRVLGQLSARRLLQDIMSR-OH) | 65.0 | 19.4 | 8.5 | – | –
2 | CC[C@H](C)[C@H](NC(=O)[C@H](C)NC(=O)[C@H](CC(=O)O)NC(=O)[C@H](C)NC(=O)[C@@H](N)Cc1ccc(O)cc1)C(=O)N[C@@H](Cc1ccccc1)C(=O)N[C@H](C(=O)N[C@@H](CC(N)=O)C(=O)N[C@@H](CO)C(=O)N[C@@H](Cc1ccc(O)cc1)C(=O)N[C@@H](CCCNC(=N)N)C(=O)N[C@@H](CCCCN)C(=O)N[C@H](C(=O)N[C@@H](CC(C)C)C(=O)NCC(=O)N[C@@H](CCC(N)=O)C(=O)N[C@@H](CC(C)C)C(=O)N[C@@H](CO)C(=O)N[C@@H](C)C(=O)N[C@@H](CCCNC(=N)N)C(=O)N[C@@H](CCCCN)C(=O)N[C@@H](CC(C)C)C(=O)N[C@@H](CC(C)C)C(=O)N[C@@H](CCC(N)=O)C(=O)N[C@@H](CC(=O)O)C(=O)N[C@H](C(=O)N[C@@H](CCSC)C(=O)N[C@@H](CO)C(=O)N[C@@H](CCCNC(=N)N)C(N)=O)[C@@H](C)CC)C(C)C)[C@@H](C)O [GRF(1-29)NH2] | 23.2 | 11.3 | 8.9 | 222 ± 50 | 622 ± 63
3 | CC[C@H](C)[C@H](NC(=O)[C@H](C)NC(=O)[C@H](CC(=O)O)NC(=O)[C@H](C)NC(=O)[C@H](Cc1ccc(O)cc1)NC(C)C)C(=O)N[C@@H](Cc1ccccc1)C(=O)N[C@H](C(=O)N[C@@H](CC(N)=O)C(=O)N[C@@H](CO)C(=O)N[C@@H](Cc1ccc(O)cc1)C(=O)N[C@@H](CCCNC(=N)N)C(=O)N[C@@H](CCCCNC(C)C)C(=O)N[C@H](C(=O)N[C@@H](CC(C)C)C(=O)NCC(=O)N[C@@H](CCC(N)=O)C(=O)N[C@@H](CC(C)C)C(=O)N[C@@H](CO)C(=O)N[C@@H](C)C(=O)N[C@@H](CCCNC(=N)N)C(=O)N[C@@H](CCCCNC(C)C)C(=O)N[C@@H](CC(C)C)C(=O)N[C@@H](CC(C)C)C(=O)N[C@@H](CCC(N)=O)C(=O)N[C@@H](CC(=O)O)C(=O)N[C@H](C(=O)N[C@@H](CCSC)C(=O)N[C@@H](CO)C(=O)N[C@@H](CCCNC(=N)N)C(=O)O)[C@@H](C)CC)C(C)C)[C@@H](C)O [tri-isopropyl-GRF(1-29)-OH, [N^α -isopropyl-Tyr^1,N ^ε -isopropyl-Lys^12,21]GRF(1-29)OH] | 53.1 | 17.2 | 9.4 | – | –
